Source: article PMC4336329 (PLoS ONE, 2015)
Among all 310,000 compounds or so, about 14,000 (4.5%) showed an effect of 50% or more. The effect is printed as a negative number. The list shows a part of the results.

Target: human ether-à-go-go-related gene (hERG) potassium channel (human, UniProt Q12809)
Experiment: primary screen, population patch clamp on CHO cells stably expressing hERG
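Also: peak tail current of the secondary pulse compared with the same well before compound.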

Sequence of human ether-à-go-go-related gene (hERG) potassium channel (Q12809 whole entry, looked up): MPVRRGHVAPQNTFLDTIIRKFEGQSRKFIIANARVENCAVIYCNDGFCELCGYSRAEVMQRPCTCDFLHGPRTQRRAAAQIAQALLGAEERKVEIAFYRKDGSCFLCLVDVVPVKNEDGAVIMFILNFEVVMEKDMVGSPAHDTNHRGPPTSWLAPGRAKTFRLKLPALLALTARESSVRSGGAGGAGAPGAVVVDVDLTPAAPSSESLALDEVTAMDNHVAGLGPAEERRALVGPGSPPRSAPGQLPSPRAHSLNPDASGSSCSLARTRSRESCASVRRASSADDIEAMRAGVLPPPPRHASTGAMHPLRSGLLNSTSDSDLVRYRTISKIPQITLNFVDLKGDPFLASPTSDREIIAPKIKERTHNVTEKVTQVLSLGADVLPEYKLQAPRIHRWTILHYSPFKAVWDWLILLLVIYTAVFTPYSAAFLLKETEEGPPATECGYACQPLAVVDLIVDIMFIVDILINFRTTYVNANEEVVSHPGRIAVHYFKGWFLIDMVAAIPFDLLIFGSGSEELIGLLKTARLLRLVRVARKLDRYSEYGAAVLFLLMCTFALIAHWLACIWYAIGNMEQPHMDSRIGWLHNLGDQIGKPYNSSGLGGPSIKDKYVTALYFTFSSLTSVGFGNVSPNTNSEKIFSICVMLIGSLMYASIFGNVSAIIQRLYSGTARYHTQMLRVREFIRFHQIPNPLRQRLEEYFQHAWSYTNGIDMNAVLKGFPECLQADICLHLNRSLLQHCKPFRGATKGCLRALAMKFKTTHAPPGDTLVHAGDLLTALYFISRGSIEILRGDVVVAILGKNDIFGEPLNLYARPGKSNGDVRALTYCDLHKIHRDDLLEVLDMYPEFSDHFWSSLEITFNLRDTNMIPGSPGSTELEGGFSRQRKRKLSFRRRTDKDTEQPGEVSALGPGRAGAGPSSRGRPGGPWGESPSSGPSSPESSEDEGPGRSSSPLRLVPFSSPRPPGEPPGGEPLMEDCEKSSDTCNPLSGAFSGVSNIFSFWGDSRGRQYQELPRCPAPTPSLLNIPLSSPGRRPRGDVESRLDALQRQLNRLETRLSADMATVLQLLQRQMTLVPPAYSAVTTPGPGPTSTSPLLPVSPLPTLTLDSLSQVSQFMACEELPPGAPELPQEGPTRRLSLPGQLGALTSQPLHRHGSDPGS

| SMILES | hERG current change (%, negative = inhibition) at 10uM [%] |
| --- | --- |
| O=C(N/N=C/c1cccc2ccccc12)c1cccs1 | 20.7 |
| CC(=O)Nc1sc(N/N=C\c2ccccc2Cl)nc1-c1cccs1 | 12 |
| CC(C)NC(=S)NCc1cccs1 | 4.01 |
| CCCCOC(=O)C1=C(N)OC2=C(C(=O)CC(C)(C)C2)[C@]12C(=O)N(C)c1ccccc12 | 20.8 |
| COc1ccc2c(c1OC)C(=O)N(c1ccc(C)cc1)C2 | 13.2 |
| Cc1ccsc1C(=O)OCC(=O)NCc1ccc(Cl)cc1 | 13.9 |
| COc1c(C)cc(C(=O)C2CCCN(S(=O)(=O)c3c(C)noc3C)C2)cc1C (centres unmarked) | -2.78 |
| Cc1ccccc1NC(=O)C(C#N)Cc1cccnc1 (centres unmarked) | -4.9 |
| Cc1ccc(NC(=O)c2snnc2C)cc1Cl | -9.81 |
| C/C(=N/NC(=O)COc1cc(C)ccc1C(C)C)C(=O)O | 8.79 |
| O=C(CCCn1cncn1)N1CCCC(N2CCN(c3ccc(F)cc3)CC2)C1 (centres unmarked) | -25.2 |
| CC1(C)CC(=O)C2=C(C1)NC(=O)NC2c1ccccc1 (centres unmarked) | 21.7 |
| O=C(O)C1CCCCC1C(=O)Nc1nc(-c2cccs2)cs1 (centres unmarked) | 4.27 |
| CCc1nc(C)cn1S(=O)(=O)c1cc(Br)ccc1OC | 2.61 |
| Cc1ccc(S(=O)(=O)c2cccc(S(=O)(=O)N3CCCC3)c2)cc1S(=O)(=O)N1CCCC1 | -29.5 |
| Nc1c(Cl)cc(-c2csc(N3CCCC3c3nc4cc(Cl)c(N5CCCCC5)cc4n3CCOCCO)n2)cc1Cl (centres unmarked) | 15.3 |
| Cc1c(C(=O)NCc2ccco2)oc2ccccc12 | -6.97 |
| CSc1ccc(CCNC(=O)CCc2nnc3ccc(NCCCN4CCCC4=O)nn23)cc1 | -1.64 |
| COc1ccc(/C=C2\C(=N\O)C3CCN2CC3)cc1.Cl | 6.66 |
| O=C(CS(=O)(=O)c1ccccc1)Nc1nnc(Cc2ccccc2)s1 | 3.43 |
| CCCCN1c2cc(C)c(O)cc2C(C(=O)OCC)C1C (centres unmarked) | 13.7 |
| COc1ccc(CN(C)c2ncnc3sccc23)c(OC)c1OC | -15.6 |

| SMILES | hERG current change (%, negative = inhibition) at 10uM [%] |
| --- | --- |
| Cc1cccc(OCC(=O)Nc2cccc3nsnc23)c1 | 10.2 |
| COc1ccc(C2C(C#N)=C(N)SC(N)=C2C#N)cc1OC | 10.6 |
| CCCN(CC(=O)c1cc(C)n(C)c1C)S(=O)(=O)c1cccc(C(F)(F)F)c1 | -15.1 |
| CCCCCCCNC(=O)C1(CC2CC(c3cccc(Br)c3)=NO2)CCN(C(=O)Cc2ccc(F)cc2)CC1 (centres unmarked) | -7.08 |
| CCC(=O)Nc1ccc(C2=Nn3c(nnc3C(C)C)SC2)cc1.Cl | 21 |
| COc1ccc(CCNC(=O)c2cc3c(=O)n4ccccc4nc3n(CCCN3CCOCC3)c2=N)cc1OC | -75.1 |
| CCC(=O)N1c2ccccc2-c2nnc(SC)nc2OC1c1ccc(N(C)C)cc1 (centres unmarked) | -6.67 |
| CN(c1ccc(C(=O)O)cc1)S(=O)(=O)c1ccc(Cl)cc1 | 1.63 |
| CCN(CC)C(=O)c1cc(S(=O)(=O)N2CCCCC2)c[nH]1 | 23.5 |
| CC(C)OCCCN(CC(O)c1ccccc1)CC(O)c1ccccc1.O=C(O)C(=O)O (centres unmarked) | -10.1 |
| O=C(CN1CCCC1)NC(=O)NC1CCCC1 | 16.5 |
| COC(=O)C1=C(C(=O)OC)[C@@H]2N(C)c3ccccc3[C@@]23C[C@@H](C(=O)OC)N(C(=O)COCc2ccccc2)C3=N1 | -9.16 |
| Cc1ccc(NC(=O)c2ccccc2-c2ccc(C(F)(F)F)cc2)cc1S(=O)(=O)N1CCOCC1 | -8.45 |
| Cc1ccc(N2CC(C(=O)NCc3cccs3)CC2=O)cc1 (centres unmarked) | -12.8 |
| COC(=O)c1ccccc1NC(=O)Nc1ccc2c(c1)OCO2 | 10.1 |
| O=C(Nc1ccc2c(c1)OCO2)c1cc(-c2ccccc2Cl)on1 | 15.3 |
| O=C(Nc1cccc(S(=O)(=O)N2CCOCC2)c1)c1cnn2c(C(F)F)cc(-c3ccccc3)nc12 | 11.6 |
| c1ccc(-c2nnc(N3CCN(c4ccccc4)CC3)nc2-c2ccccc2)cc1 | 4.72 |
| CN1CCN(c2nc(C(N)=O)cc(-c3ccccc3)n2)CC1 | -44.1 |
| CCN(CC)P(=O)(c1nccn1C)N(CC)CC | 27.3 |
| O=C(Cn1cnc([N+](=O)[O-])c1)NC1CCCC1 | 8.33 |
| Fc1ccccc1CNC(=S)Nc1ccc(Cl)cc1 | -17.5 |
